Test results from the supplement of paper PMC11417369.
± gives the standard deviation of the averaged measurements. The list shows a part of the results.

tested on: PfAP2-LT AP2 domain (GST-tagged); test: gcPBM binding intensity (ln(normalized median fluorescence intensity)); higher = stronger DNA binding
Summary of the method: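 The highest Masliner-normalised natural-log median intensity across replicate spots of either probe orientation is reported as binding intensity. GST-tagged P. falciparum DNA-binding domains expressed in E. coli were applied for 1 h to an Agilent 4 × 180k array of primer-extended double-stranded 36-bp intergenic genomic probes plus negative controls, and bound protein was detected with Alexa488 anti-GST antibody and scanned at 488 nm.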

Sequence	gcPBM binding intensity (ln)
TGTAGTTTTTATTTATGTACGCATAACATAATTTAA [XGTACX_site104]	8.71 ± 0.45
TATATATATAAATACACACACACATATATATATATA [CACACA_site4585]	9.86 ± 0.18
ATCATACCTTTTAATGTACACACATTTCTTTTTTGT [CACACA_site8198]	9.56 ± 0.48
TATATAAATAAAAAAAGTACATTACTTTTTAATTTA [XGTACX_site285]	8.27 ± 0.4
TAGTATGATAACTTGGGTACATAAATATGGAGTATC [XGTACX_site1296]	8.93 ± 0.52
TTCATTTTATTTTAAGTGCATATTTTTATTTTTTTG	8.64 ± 0.47
TTTTTAATTCAAAAAACTGTATGTTATATGTCAAAT [CACACA_negctrl_site72]	8.32 ± 0.45
AGAAAGGATATTATATGTACATATCTTTGTATTTTT [XGTACX_site5040]	8.93 ± 0.46
CATACCCATAAACACACACACATATATACCTATATA [CACACA_site4745]	9.69 ± 0.39
ACTATACAGTTATACACACACATATATCTATAATAT [CACACA_site6283]	9.3 ± 0.3
ATACATATATATATATGTACATATGTATTTTTTATT [XGTACX_site105]	9.01 ± 0.41
TTTACATATTTATATACACACTTTTGCGTGCGTGGT [CACACA_site6647]	9.26 ± 0.54
AATAAAATATATTCCTGTACATATGATTCTTTTTTT [XGTACX_site7980]	8.68 ± 0.49
TAGTATAATATGAACACACACACACCGACAAAAAAA [CACACA_site5151]	9.96 ± 0.2
AATTGAAAAAGAAATTGTACATTTTATTTTTATTAT [XGTACX_site1973]	8.48 ± 0.44
ATATAATTTATATATTCACACAAGGAATACTTTTAT [CACACA_site5506]	8.65 ± 0.46
TTTTATTTGACAAGCACACACTTAAATATATATATA [CACACA_site5792]	8.9 ± 0.3
AAACAAAAAATAAAATGTACATTTATTACGATAAGT [XGTACX_site2392]	9.09 ± 0.4
GGATAATATATTAGAACACACATATATATGTAAAAA [CACACA_site185]	9.04 ± 0.42
ATGGAATAATCACGTACACACAAGAAAAAAAAAAAT [CACACA_site527]	9.3 ± 0.49
ATTACAAATACAAACACACAAATGTTTTTCATTCAA [CACACA_site7639]	8.74 ± 0.38
AGTAAATTTGATGGTCGTACAAAAAAAAAGTAGGAC [XGTACX_site2600]	9.03 ± 0.48

Sequence	gcPBM binding intensity (ln)
TTTTTAATCAGAAATATTTATTAAAGAATTTTATAG [GTGCAC_negctrl_site725]	7.99 ± 0.49
ATATACATAATTTGGAGTACAATATCATATAAATAT [XGTACX_site6334]	8.79 ± 0.45
ACGAAGTATATGAATACACACATATTTTTAATGAAA [CACACA_site4070]	8.98 ± 0.4
TATATGTATGTTTGTGTGCACACATAAATATTATAT	9.64 ± 0.26
ATATATATATATATATGTACTTATGTCATCATTAAA [XGTACX_site5316]	9.47 ± 0.37
TTTTACAATAACAATACACACTATAATATGTAAATA [CACACA_site6772]	8.82 ± 0.35
CATTTAAAATTTGTTTGTACATATATATATATATAT [XGTACX_site6729]	9.185 ± 0.078
AATGTACAAATACGTACACACATATATATATATATA [CACACA_site1542]	10.1 ± 0.18
AAATAAAGGAAATGTATATCAACATTAAAATAAGGC [CACACA_negctrl_site441]	9.13 ± 0.48
GTATAAAATATTTTATGTACATAATATATATATATA [XGTACX_site2489]	8.8 ± 0.28
GTTTTTGAGTAGTACACACACAATAAGGATGGATTC [CACACA_site3192]	9.22 ± 0.3
ACATCTAGGCTTATTTTATGATACATGTGAATATAT [TGCATGCA_negctrl_site325]	8.91 ± 0.4
ATAAAGATAATATATGCACACATATAAATATATAAA [CACACA_site9153]	9.09 ± 0.43
AATAATATTAATAAAAGTACATGTGTAATATATATA [XGTACX_site5922]	9.01 ± 0.44
ATAAAAACTACATTCACACAAAAAAAAATCTACAAA [CACACA_site6109]	8.71 ± 0.49
ATATATATATGTTAGGTGCATATATATTTTGTGGAT [GTGCAC_site9964]	9.01 ± 0.28
ATATATATAATATATTGTACATATAATATATATATA [XGTACX_site4792]	8.61 ± 0.33
GATATGATTATGTGATGGTGTTTTTGATAGATATTT [CACACA_negctrl_site1445]	8.97 ± 0.33
GAATAATTAAAAGGTAGTACAAAGGTTATCAAAAGG [XGTACX_site8496]	8.95 ± 0.43
TTGTTCTTTTGAAAGGTGCAAAAGAAAAATAATTAA	8.66 ± 0.53
AGAAAACCGAAAGAGACACACAACATGTCGATTTAG [CACACA_site3764]	9.2 ± 0.49
ACTAAAAGGCTTAAATGTACATATTATATATATATA [XGTACX_site5897]	8.89 ± 0.42
